Laboratory results from patent US20240124563A1 (NANJING ZAIMING PHARMACEUTICAL, published 2024).

T1: human MSLN-R1-his protein (human, UniProt Q13421 296-390)
T1 construct: also called hMSLN-R1-his; not shown: histidine tag
T1 chain: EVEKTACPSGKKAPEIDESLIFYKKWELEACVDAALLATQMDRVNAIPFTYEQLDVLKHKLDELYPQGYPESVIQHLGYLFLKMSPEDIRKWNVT

B1: NB149-95 VHH-hFc (Fc fusion)
chain: QVQLVESGGGLVQAGGSLRLSCTASESGFSANYMGWYRQEAPGKERELVATINRFGSTNYADSVKGRFTISRDNAKNTVYLQMNSLKSEDTGVYYCRIMRPGNWYWGQGTQVTVSS[human IgG1 Fc with changes not written out]
notes: no linker stated
B2: NB148-25 VHH-hFc (Fc fusion)
chain: QVQLVESGGGLVQAGGSLRLSCAASGSTFGRIVMRWYRQAQGKQREWVASIYDSGSTSYSDPVQGRFTISRDNARNTVYLQMNSLRPADTAVYYCNLGTALSSYWGQGTQVTVSS[human IgG1 Fc with changes not written out]
notes: no linker stated
B3: NB149-34 VHH-hFc (Fc fusion)
chain: QLQLVESGGGLVQPGGSLRLSCAASGSVNSITAMGWYRQGPGNERELVAVITDRGRASYADSVKGRFAISMDNDKHTVYLQMDSLKPEDTAVYYCNAHRRTWPHPGDYWGQGTQVTVSS[human IgG1 Fc with changes not written out]
notes: no linker stated
B4: NB149-97 VHH-hFc (Fc fusion)
chain: EVQVVESGGGLVQAGGGLRLSCAASERTFSSSSIGWFRQAPGKEREFVATMNRIGGHTFYADPVKGRFTISRDNAANTVYLQMSSLKPEDAAVYYCASSRIYSHSPRDYDYWSQGTQVTVSS[human IgG1 Fc with changes not written out]
notes: no linker stated
B5: NB148-13 VHH-hFc (Fc fusion)
chain: QLQLVESGGGLVQAGGSLRLSCTASGSTSMSYGAKWFRRAPGKEREWVASVYRDGTTGYDDSVKGRFTISRDLAKNTVYLQMNSLRLEDTAVYYCTALNSWGQGTQVTVSS[human IgG1 Fc with changes not written out]

Target: T2, human MSLN-FL-his protein (human, UniProt Q13421 296-580)
T2 construct: also called hMSLN-FL-his; not shown: histidine tag
Test: ELISA, coated antigen, 1 nM antibody

Binder | OD450 nm [OD450 nm]
B1 | 0.43
B2 | 1.16
B3 | 0.86
B4 | 2.29

Target: T3, human MSLN-R3-his protein (human, UniProt Q13421 487-598)
T3 construct: also called hMSLN-R3-his; not shown: histidine tag
Test: ELISA, coated antigen, 1 nM antibody

Binder | OD450 nm [OD450 nm]
B1 | 0.05
B2 | 0.05
B3 | 0.05
B4 | 0.06

Target: T2, human MSLN-FL-his protein
Test: ELISA, coated antigen, 10 nM antibody

Binder | OD450 nm [OD450 nm]
B1 | 2.35
B2 | 2.62
B3 | 2.07
B4 | 2.28

Target: T3, human MSLN-R3-his protein
Test: ELISA, coated antigen, 10 nM antibody

Binder | OD450 nm [OD450 nm]
B1 | 0.05
B2 | 0.05
B3 | 0.05
B4 | 0.06

Target: T2, human MSLN-FL-his protein
Test: ELISA, coated antigen, 20 nM antibody

Binder | OD450 nm [OD450 nm]
B1 | 2.66
B2 | 2.71
B3 | 2.72

Target: T1, human MSLN-R1-his protein
Test: ELISA, coated antigen, 20 nM antibody

Binder | OD450 nm [OD450 nm]
B1 | 2.41
B2 | 0.46
B3 | 0.78

Target: T4, human MSLN-R2-his protein (human, UniProt Q13421 391-486)
T4 construct: also called hMSLN-R2-his; not shown: histidine tag
Test: ELISA, coated antigen, 20 nM antibody

Binder | OD450 nm [OD450 nm]
B1 | 0.34
B2 | 2.31
B3 | 0.08

Target: T3, human MSLN-R3-his protein
Test: ELISA, coated antigen, 20 nM antibody

Binder | OD450 nm [OD450 nm]
B1 | 0.06
B2 | 0.18
B3 | 0.06

Target: T2, human MSLN-FL-his protein
Test: ELISA, coated antigen, 0.1 nM antibody

Binder | OD450 nm [OD450 nm]
B1 | 0.07
B2 | 0.19
B3 | 0.17
B4 | 1.75

Target: T2, human MSLN-FL-his protein
Test: ELISA, coated antigen, 100 nM antibody

Binder | OD450 nm [OD450 nm]
B1 | 2.4
B2 | 2.64
B3 | 2.62
B4 | 2.6

Target: T3, human MSLN-R3-his protein
Test: ELISA, coated antigen, 0.1 nM antibody

Binder | OD450 nm [OD450 nm]
B1 | 0.05
B2 | 0.05
B4 | 0.06

Target: T3, human MSLN-R3-his protein
Test: ELISA, coated antigen, 100 nM antibody

Binder | OD450 nm [OD450 nm]
B1 | 0.06
B2 | 0.06
B3 | 0.07
B4 | 0.09

Target: T2, human MSLN-FL-his protein
Test: ELISA, coated antigen, 0.2 nM antibody

Binder | OD450 nm [OD450 nm]
B1 | 2.47
B2 | 2.35
B3 | 2.48

Target: T1, human MSLN-R1-his protein
Test: ELISA, coated antigen, 0.2 nM antibody

Binder | OD450 nm [OD450 nm]
B1 | 2.02
B2 | 0.14
B3 | 0.19

Target: T4, human MSLN-R2-his protein
Test: ELISA, coated antigen, 0.2 nM antibody

Binder | OD450 nm [OD450 nm]
B1 | 0.1
B2 | 1.92
B3 | 0.07

Target: T3, human MSLN-R3-his protein
Test: ELISA, coated antigen, 0.2 nM antibody

Binder | OD450 nm [OD450 nm]
B1 | 0.05
B2 | 0.06
B3 | 0.05

Target: T2, human MSLN-FL-his protein
Test: ELISA, coated antigen, 0.01 nM antibody

Binder | OD450 nm [OD450 nm]
B1 | 0.05
B2 | 0.06
B3 | 0.06
B4 | 0.45

Target: T3, human MSLN-R3-his protein
Test: ELISA, coated antigen, 0.01 nM antibody

Binder | OD450 nm [OD450 nm]
B1 | 0.05
B2 | 0.05
B3 | 0.06
B4 | 0.06

Target: T2, human MSLN-FL-his protein
Test: ELISA, coated antigen, 0.001 nM antibody

Binder | OD450 nm [OD450 nm]
B1 | 0.05
B2 | 0.05
B3 | 0.05
B4 | 0.1

Target: T3, human MSLN-R3-his protein
Test: ELISA, coated antigen, 0.001 nM antibody

Binder | OD450 nm [OD450 nm]
B1 | 0.05
B2 | 0.05
B3 | 0.05
B4 | 0.06

Target: T2, human MSLN-FL-his protein
Test: ELISA, coated antigen, 0.0001 nM antibody

Binder | OD450 nm [OD450 nm]
B1 | 0.04
B2 | 0.05
B3 | 0.05
B4 | 0.06

Target: T3, human MSLN-R3-his protein
Test: ELISA, coated antigen, 0.0001 nM antibody

Binder | OD450 nm [OD450 nm]
B1 | 0.05
B2 | 0.05
B3 | 0.05
B4 | 0.06

Target: T2, human MSLN-FL-his protein
Test: ELISA, coated antigen, 0 nM antibody (blank)

Binder | OD450 nm [OD450 nm]
B1 | 0.06
B2 | 0.05
B3 | 0.05
B4 | 0.06

Target: T3, human MSLN-R3-his protein
Test: ELISA, coated antigen, 0 nM antibody (blank)

Binder | OD450 nm [OD450 nm]
B1 | 0.05
B2 | 0.05
B3 | 0.05
B4 | 0.06

Target: T5, chimeric human MSLN-R3 / chicken MSLN-R1-2 protein on HEK293T cells (clone A5) (chicken; human)
T5 construct: range 327-514; Human R1-R2 replaced by chicken R1-R2; also called HEK293T-chickR1-2/hR3-A5; HEK293T-hR3/chickR1-2-A5
Test: FACS, HEK293T-hR3/chickR1-2-A5 cells, antibody 20 nM

Binder | MFI
B5 | 74

Target: T5, chimeric human MSLN-R3 / chicken …
Test: FACS, HEK293T-hR3/chickR1-2-A5 cells, antibody 0.2 nM

Binder | MFI
B5 | 74
